The list shows a part of the results.
target: T1, MBP-FoxP1dN (Mus musculus, UniProt P58462 326-579); assay: PD-seq (MBP pull-down with sequencing); 20 mM Tris-HCl pH 7.5, 100 mM NaCl, 1.5 mM MgCl2, 0.4 uM protein, 0.1 uM dsDNA library, 30 min, room temperature, amylose pull-down; high values mean tight binding; settings: protein: recombinant; tags: His6-MBP; chain copies: 2; dsDNA, one strand shown
T1 sequence: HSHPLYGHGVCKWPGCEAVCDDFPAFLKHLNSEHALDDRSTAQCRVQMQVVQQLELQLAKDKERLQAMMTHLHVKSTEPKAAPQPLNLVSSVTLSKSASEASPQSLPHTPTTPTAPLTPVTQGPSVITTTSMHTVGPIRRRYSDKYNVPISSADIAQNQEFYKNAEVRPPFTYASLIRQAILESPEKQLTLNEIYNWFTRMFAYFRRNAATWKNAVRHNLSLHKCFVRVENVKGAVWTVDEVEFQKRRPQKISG
Summary of the method: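 A degenerate double-stranded DNA library, filled in with Klenow, was added at 0.1 µM to 0.4 µM His6-MBP-tagged mouse FoxP3 or FoxP1 fragment lacking the N-terminus, expressed in E. coli. Incubation lasted 30 min at room temperature in Tris pH 7.5 buffer with NaCl and MgCl2, after which complexes were collected on amylose resin, washed three times, digested with proteinase K to free the DNA, barcoded by PCR and sequenced by Illumina. Binding is the pooled-replicate reads-per-million enrichment of pull-down over input.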

Sequence	binding signal
GATGATTGTTCTCCCAGCTGATGAATTGGTGTAATCGAGTAAACAAATTTTCCTAATCTTTCTGTTCAAGCGCCATCTAC	1.49 RPM ratio (pull-down/input)
GATGATTGTTCTCCCAGCTGATGAATTACCCAGGTCGAGTAAACAAATTTTCCTAATCTTTCTGTTCAAGCGCCATCTAC	0.849 RPM ratio (pull-down/input)
GATGATTGTTCTCCCAGCTGATGAATTCGCCACGTCGAGTAAACAAATTTTCCTAATCTTTCTGTTCAAGCGCCATCTAC	0.909 RPM ratio (pull-down/input)
GATGATTGTTCTCCCAGCTGATGAATTAACCCGCTCGAGTAAACAAATTTTCCTAATCTTTCTGTTCAAGCGCCATCTAC	0.814 RPM ratio (pull-down/input)
GATGATTGTTCTCCCAGCTGATGAATTGCTACCTTCGAGTAAACAAATTTTCCTAATCTTTCTGTTCAAGCGCCATCTAC	1.07 RPM ratio (pull-down/input)
GATGATTGTTCTCCCAGCTGATGAATTTAAAGTGTCGAGTAAACAAATTTTCCTAATCTTTCTGTTCAAGCGCCATCTAC	0.935 RPM ratio (pull-down/input)
GATGATTGTTCTCCCAGCTGATGAATTAGGGTGCTCGAGTAAACAAATTTTCCTAATCTTTCTGTTCAAGCGCCATCTAC	0.798 RPM ratio (pull-down/input)
GATGATTGTTCTCCCAGCTGATGAATTGCTACGTTCGAGTAAACAAATTTTCCTAATCTTTCTGTTCAAGCGCCATCTAC	1.19 RPM ratio (pull-down/input)
GATGATTGTTCTCCCAGCTGATGAATTCCACCATTCGAGTAAACAAATTTTCCTAATCTTTCTGTTCAAGCGCCATCTAC	0.908 RPM ratio (pull-down/input)
GATGATTGTTCTCCCAGCTGATGAATTGGGCAGATCGAGTAAACAAATTTTCCTAATCTTTCTGTTCAAGCGCCATCTAC	0.83 RPM ratio (pull-down/input)
GATGATTGTTCTCCCAGCTGATGAATTGCTCCGCTCGAGTAAACAAATTTTCCTAATCTTTCTGTTCAAGCGCCATCTAC	0.917 RPM ratio (pull-down/input)
GATGATTGTTCTCCCAGCTGATGAATTGCTTTCGTCGAGTAAACAAATTTTCCTAATCTTTCTGTTCAAGCGCCATCTAC	1.12 RPM ratio (pull-down/input)
GATGATTGTTCTCCCAGCTGATGAATTAAAAGTGTCGAGTAAACAAATTTTCCTAATCTTTCTGTTCAAGCGCCATCTAC	0.971 RPM ratio (pull-down/input)
GATGATTGTTCTCCCAGCTGATGAATTTATAATATCGAGTAAACAAATTTTCCTAATCTTTCTGTTCAAGCGCCATCTAC	1.31 RPM ratio (pull-down/input)
GATGATTGTTCTCCCAGCTGATGAATTCCCGATATCGAGTAAACAAATTTTCCTAATCTTTCTGTTCAAGCGCCATCTAC	0.844 RPM ratio (pull-down/input)
GATGATTGTTCTCCCAGCTGATGAATTCGCGCGATCGAGTAAACAAATTTTCCTAATCTTTCTGTTCAAGCGCCATCTAC	0.886 RPM ratio (pull-down/input)
GATGATTGTTCTCCCAGCTGATGAATTAAGCTACTCGAGTAAACAAATTTTCCTAATCTTTCTGTTCAAGCGCCATCTAC	0.917 RPM ratio (pull-down/input)
GATGATTGTTCTCCCAGCTGATGAATTAGGATCATCGAGTAAACAAATTTTCCTAATCTTTCTGTTCAAGCGCCATCTAC	0.974 RPM ratio (pull-down/input)
GATGATTGTTCTCCCAGCTGATGAATTTTTACCGTCGAGTAAACAAATTTTCCTAATCTTTCTGTTCAAGCGCCATCTAC	0.917 RPM ratio (pull-down/input)
GATGATTGTTCTCCCAGCTGATGAATTGATCCGATCGAGTAAACAAATTTTCCTAATCTTTCTGTTCAAGCGCCATCTAC	0.857 RPM ratio (pull-down/input)
GATGATTGTTCTCCCAGCTGATGAATTGTGATGTTCGAGTAAACAAATTTTCCTAATCTTTCTGTTCAAGCGCCATCTAC	1.59 RPM ratio (pull-down/input)

Sequence	binding signal
GATGATTGTTCTCCCAGCTGATGAATTAGGATATTCGAGTAAACAAATTTTCCTAATCTTTCTGTTCAAGCGCCATCTAC	0.917 RPM ratio (pull-down/input)
GATGATTGTTCTCCCAGCTGATGAATTACTCAATTCGAGTAAACAAATTTTCCTAATCTTTCTGTTCAAGCGCCATCTAC	1.25 RPM ratio (pull-down/input)
GATGATTGTTCTCCCAGCTGATGAATTATTAGCGTCGAGTAAACAAATTTTCCTAATCTTTCTGTTCAAGCGCCATCTAC	1.28 RPM ratio (pull-down/input)
GATGATTGTTCTCCCAGCTGATGAATTTCCCGTATCGAGTAAACAAATTTTCCTAATCTTTCTGTTCAAGCGCCATCTAC	0.953 RPM ratio (pull-down/input)
GATGATTGTTCTCCCAGCTGATGAATTACAAATATCGAGTAAACAAATTTTCCTAATCTTTCTGTTCAAGCGCCATCTAC	2.21 RPM ratio (pull-down/input)
GATGATTGTTCTCCCAGCTGATGAATTTACCGACTCGAGTAAACAAATTTTCCTAATCTTTCTGTTCAAGCGCCATCTAC	1.08 RPM ratio (pull-down/input)
GATGATTGTTCTCCCAGCTGATGAATTTATGCACTCGAGTAAACAAATTTTCCTAATCTTTCTGTTCAAGCGCCATCTAC	1.19 RPM ratio (pull-down/input)
GATGATTGTTCTCCCAGCTGATGAATTATCCCTATCGAGTAAACAAATTTTCCTAATCTTTCTGTTCAAGCGCCATCTAC	1.05 RPM ratio (pull-down/input)
GATGATTGTTCTCCCAGCTGATGAATTGACGTTTTCGAGTAAACAAATTTTCCTAATCTTTCTGTTCAAGCGCCATCTAC	1.24 RPM ratio (pull-down/input)
GATGATTGTTCTCCCAGCTGATGAATTTCAACTATCGAGTAAACAAATTTTCCTAATCTTTCTGTTCAAGCGCCATCTAC	0.987 RPM ratio (pull-down/input)
GATGATTGTTCTCCCAGCTGATGAATTCCTTTCCTCGAGTAAACAAATTTTCCTAATCTTTCTGTTCAAGCGCCATCTAC	0.761 RPM ratio (pull-down/input)
GATGATTGTTCTCCCAGCTGATGAATTGATCGTTTCGAGTAAACAAATTTTCCTAATCTTTCTGTTCAAGCGCCATCTAC	1.02 RPM ratio (pull-down/input)
GATGATTGTTCTCCCAGCTGATGAATTTGTTTGGTCGAGTAAACAAATTTTCCTAATCTTTCTGTTCAAGCGCCATCTAC	2.1 RPM ratio (pull-down/input)
GATGATTGTTCTCCCAGCTGATGAATTTCTCCTATCGAGTAAACAAATTTTCCTAATCTTTCTGTTCAAGCGCCATCTAC	0.938 RPM ratio (pull-down/input)
GATGATTGTTCTCCCAGCTGATGAATTCACCCGATCGAGTAAACAAATTTTCCTAATCTTTCTGTTCAAGCGCCATCTAC	0.813 RPM ratio (pull-down/input)
GATGATTGTTCTCCCAGCTGATGAATTATCACCCTCGAGTAAACAAATTTTCCTAATCTTTCTGTTCAAGCGCCATCTAC	0.93 RPM ratio (pull-down/input)
GATGATTGTTCTCCCAGCTGATGAATTCGTCATATCGAGTAAACAAATTTTCCTAATCTTTCTGTTCAAGCGCCATCTAC	0.964 RPM ratio (pull-down/input)
GATGATTGTTCTCCCAGCTGATGAATTGCGATTGTCGAGTAAACAAATTTTCCTAATCTTTCTGTTCAAGCGCCATCTAC	1.34 RPM ratio (pull-down/input)
GATGATTGTTCTCCCAGCTGATGAATTCCTTCTGTCGAGTAAACAAATTTTCCTAATCTTTCTGTTCAAGCGCCATCTAC	0.786 RPM ratio (pull-down/input)
GATGATTGTTCTCCCAGCTGATGAATTCCGATGGTCGAGTAAACAAATTTTCCTAATCTTTCTGTTCAAGCGCCATCTAC	0.796 RPM ratio (pull-down/input)
GATGATTGTTCTCCCAGCTGATGAATTGATTATGTCGAGTAAACAAATTTTCCTAATCTTTCTGTTCAAGCGCCATCTAC	1.31 RPM ratio (pull-down/input)

Sequence	binding signal
GATGATTGTTCTCCCAGCTGATGAATTTGGTATGTCGAGTAAACAAATTTTCCTAATCTTTCTGTTCAAGCGCCATCTAC	0.971 RPM ratio (pull-down/input)
GATGATTGTTCTCCCAGCTGATGAATTAGTCTGGTCGAGTAAACAAATTTTCCTAATCTTTCTGTTCAAGCGCCATCTAC	0.822 RPM ratio (pull-down/input)
GATGATTGTTCTCCCAGCTGATGAATTTACGTCTTCGAGTAAACAAATTTTCCTAATCTTTCTGTTCAAGCGCCATCTAC	1.3 RPM ratio (pull-down/input)
GATGATTGTTCTCCCAGCTGATGAATTCAAACAGTCGAGTAAACAAATTTTCCTAATCTTTCTGTTCAAGCGCCATCTAC	1.08 RPM ratio (pull-down/input)
GATGATTGTTCTCCCAGCTGATGAATTATAATTTTCGAGTAAACAAATTTTCCTAATCTTTCTGTTCAAGCGCCATCTAC	1.1 RPM ratio (pull-down/input)
GATGATTGTTCTCCCAGCTGATGAATTTACCCACTCGAGTAAACAAATTTTCCTAATCTTTCTGTTCAAGCGCCATCTAC	1.07 RPM ratio (pull-down/input)
GATGATTGTTCTCCCAGCTGATGAATTATTTACGTCGAGTAAACAAATTTTCCTAATCTTTCTGTTCAAGCGCCATCTAC	2.19 RPM ratio (pull-down/input)
GATGATTGTTCTCCCAGCTGATGAATTTTCCCAATCGAGTAAACAAATTTTCCTAATCTTTCTGTTCAAGCGCCATCTAC	1.03 RPM ratio (pull-down/input)
GATGATTGTTCTCCCAGCTGATGAATTAGATCGCTCGAGTAAACAAATTTTCCTAATCTTTCTGTTCAAGCGCCATCTAC	0.887 RPM ratio (pull-down/input)
GATGATTGTTCTCCCAGCTGATGAATTGAAGTTCTCGAGTAAACAAATTTTCCTAATCTTTCTGTTCAAGCGCCATCTAC	0.778 RPM ratio (pull-down/input)
GATGATTGTTCTCCCAGCTGATGAATTAGCTCGGTCGAGTAAACAAATTTTCCTAATCTTTCTGTTCAAGCGCCATCTAC	0.829 RPM ratio (pull-down/input)
GATGATTGTTCTCCCAGCTGATGAATTACGCTGCTCGAGTAAACAAATTTTCCTAATCTTTCTGTTCAAGCGCCATCTAC	0.954 RPM ratio (pull-down/input)
GATGATTGTTCTCCCAGCTGATGAATTCAACCGTTCGAGTAAACAAATTTTCCTAATCTTTCTGTTCAAGCGCCATCTAC	0.947 RPM ratio (pull-down/input)
GATGATTGTTCTCCCAGCTGATGAATTCGTAATTTCGAGTAAACAAATTTTCCTAATCTTTCTGTTCAAGCGCCATCTAC	1.06 RPM ratio (pull-down/input)
GATGATTGTTCTCCCAGCTGATGAATTCTACTCCTCGAGTAAACAAATTTTCCTAATCTTTCTGTTCAAGCGCCATCTAC	0.835 RPM ratio (pull-down/input)
GATGATTGTTCTCCCAGCTGATGAATTATCACTATCGAGTAAACAAATTTTCCTAATCTTTCTGTTCAAGCGCCATCTAC	1.11 RPM ratio (pull-down/input)
GATGATTGTTCTCCCAGCTGATGAATTTTTGCTCTCGAGTAAACAAATTTTCCTAATCTTTCTGTTCAAGCGCCATCTAC	0.935 RPM ratio (pull-down/input)
GATGATTGTTCTCCCAGCTGATGAATTCCACGAGTCGAGTAAACAAATTTTCCTAATCTTTCTGTTCAAGCGCCATCTAC	0.795 RPM ratio (pull-down/input)
GATGATTGTTCTCCCAGCTGATGAATTCCTGTACTCGAGTAAACAAATTTTCCTAATCTTTCTGTTCAAGCGCCATCTAC	0.913 RPM ratio (pull-down/input)
GATGATTGTTCTCCCAGCTGATGAATTCAGAAGCTCGAGTAAACAAATTTTCCTAATCTTTCTGTTCAAGCGCCATCTAC	0.766 RPM ratio (pull-down/input)
GATGATTGTTCTCCCAGCTGATGAATTGGGTTGCTCGAGTAAACAAATTTTCCTAATCTTTCTGTTCAAGCGCCATCTAC	0.894 RPM ratio (pull-down/input)
